# Source: the supplement of paper PMC8728848
# The other results are listed elsewhere or left out.
# B1: Gal 3 (Homo sapiens), P17931 (protein)
# chain: MADNFSLHDALSGSGNPNPQGWPGAWGNQPAGAGGYPGASYPGAYPGQAPPGAYPGQAPPGAYHGAPGAYPGAPAPGVYPGPPSGPGAYPSSGQPSAPGAYPATGPYGAPAGPLIVPYNLPLPGGVVPRMLITILGTVKPNANILDFQRGNDVAFHFNPRFNENNRRVIVCNTKLDNNWGREESQSVFPFESGKPFKIQVLVEPDHFKVAVNDAHLLQYNHRVKKLNEISKLGISGDIDLTSASYTMI
# Experiments:
# Experiment in all cases: glycan array binding signal (z-score within array); higher = stronger binding
# Conditions in all cases: glycan notation: IUPAC condensed, linker removed; mutation: R186S
# [1] = target: Fuc(a1-2)[GalNAc(a1-3)]Gal(b1-4)GlcNAc(b1-3)Gal(b1-4)GlcNAc
# In short: (§1)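 Glycan array data came from 3228 arrays in the Consortium for Functional Glycomics database, and only arrays with an available protein sequence were kept. Glycan names were put into IUPAC-condensed notation, and columns mapping to the same glycan were averaged. The binding signal is a within-array Z-score, averaged across arrays of one protein sequence run at different concentrations or buffers and across linkers. A negative Z-score can be read as non-binding.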
# [2] = target: Fuc(a1-2)[GalNAc(a1-3)]Gal(b1-4)GlcNAc(b1-3)Gal(b1-4)GlcNAc(b1-3)Gal(b1-4)GlcNAc
# In short: as §1
# [3] = target: Fuc(a1-2)[GalNAc(a1-3)]Gal(b1-4)[Fuc(a1-3)]GlcNAc
# In short: as §1
# [4] = target: Fuc(a1-2)[GalNAc(a1-4)]Gal(b1-4)GlcNAc
# In short: as §1
# [5] = target: Fuc(a1-2)[GalNAc(b1-3)]Gal
# In short: as §1
# Fuc(a1-3)GlcNAc = target: Fuc(a1-3)GlcNAc
# In short: as §1
# [6] = target: Fuc(a1-3)[Gal(b1-4)]Glc6S
# In short: as §1
# [7] = target: Fuc(a1-3)[Gal(b1-4)]GlcNAc
# In short: as §1
# [8] = target: Fuc(a1-3)[Gal(b1-4)]GlcNAc(b1-2)Man(a1-3)[Fuc(a1-3)[Gal(b1-4)]GlcNAc(b1-2)Man(a1-6)]Man(b1-4)GlcNAc(b1-4)GlcNAc
# In short: as §1
# [9] = target: Fuc(a1-3)[Gal(b1-4)]GlcNAc(b1-3)Gal(b1-3)[Fuc(a1-4)]GlcNAc
# In short: as §1
# [10] = target: Fuc(a1-3)[Gal(b1-4)]GlcNAc(b1-3)GalNAc
# In short: as §1
# [11] = target: Fuc(a1-3)[Gal(b1-4)]GlcNAc(b1-4)Gal(b1-4)[Fuc(a1-3)]GlcNAc
# In short: as §1
# [12] = target: Fuc(a1-3)[Gal(b1-4)]GlcNAc(b1-4)Gal(b1-4)[Fuc(a1-3)]GlcNAc(b1-4)Gal(b1-4)[Fuc(a1-3)]GlcNAc
# In short: as §1
# [13] = target: Fuc(a1-3)[Gal(b1-4)]GlcNAc(b1-6)[Gal(b1-3)GlcNAc(b1-3)]Gal(b1-4)Glc
# In short: as §1
# [14] = target: Fuc(a1-3)[Gal(b1-4)]GlcNAc6S
# In short: as §1
# [15] = target: Fuc(a1-3)[Gal3S(b1-4)]GlcNAc
# In short: as §1
# [16] = target: Fuc(a1-3)[Gal3S(b1-4)]GlcNAc6S
# In short: as §1
# [17] = target: Fuc(a1-3)[GalNAc(b1-4)]GlcNAc
# In short: as §1
# Fuc(a1-4)GlcNAc = target: Fuc(a1-4)GlcNAc
# In short: as §1
# Fuc(b1-3)GlcNAc = target: Fuc(b1-3)GlcNAc
# In short: as §1
# Gal(a1-2)Gal = target: Gal(a1-2)Gal
# In short: as §1
# Gal(a1-3)Gal = target: Gal(a1-3)Gal
# In short: as §1
# Gal(a1-3)Gal(b1-3)GlcNAc = target: Gal(a1-3)Gal(b1-3)GlcNAc
# In short: as §1
# [18] = target: Gal(a1-3)Gal(b1-3)GlcNAc(b1-2)Man(a1-3)[Gal(a1-3)Gal(b1-3)GlcNAc(b1-2)Man(a1-6)]Man(b1-4)GlcNAc(b1-4)GlcNAc
# In short: as §1
# [19] = target: Gal(a1-3)Gal(b1-3)[Fuc(a1-4)]GlcNAc(b1-2)Man(a1-3)[Gal(a1-3)Gal(b1-3)[Fuc(a1-4)]GlcNAc(b1-2)Man(a1-6)]Man(b1-4)GlcNAc(b1-4)GlcNAc
# In short: as §1
# Gal(a1-3)Gal(b1-4)Glc = target: Gal(a1-3)Gal(b1-4)Glc
# In short: as §1
# Gal(a1-3)Gal(b1-4)GlcNAc = target: Gal(a1-3)Gal(b1-4)GlcNAc
# In short: as §1
# [20] = target: Gal(a1-3)Gal(b1-4)GlcNAc(b1-3)GalNAc
# In short: as §1
# [21] = target: Gal(a1-3)Gal(b1-4)[Fuc(a1-3)]GlcNAc
# In short: as §1
# [22] = target: Gal(a1-3)Gal(b1-4)[Fuc(a1-3)]GlcNAc(b1-2)Man(a1-3)[Gal(a1-3)Gal(b1-4)[Fuc(a1-3)]GlcNAc(b1-2)Man(a1-6)]Man(b1-4)GlcNAc(b1-4)GlcNAc
# In short: as §1
# Gal(a1-3)GalNAc = target: Gal(a1-3)GalNAc
# In short: as §1
# [23] = target: Gal(a1-3)[Gal(a1-4)]Gal(b1-4)GlcNAc
# In short: as §1
# [24] = target: Gal(a1-4)Gal(b1-3)GlcNAc(b1-2)Man(a1-3)[Gal(a1-4)Gal(b1-3)GlcNAc(b1-2)Man(a1-6)]Man(b1-4)GlcNAc(b1-4)GlcNAc
# In short: as §1
# Gal(a1-4)Gal(b1-4)Glc = target: Gal(a1-4)Gal(b1-4)Glc
# In short: as §1
# Gal(a1-4)Gal(b1-4)GlcNAc = target: Gal(a1-4)Gal(b1-4)GlcNAc
# In short: as §1
# [25] = target: Gal(a1-4)Gal(b1-4)GlcNAc(b1-2)Man(a1-3)[Gal(a1-4)Gal(b1-4)GlcNAc(b1-2)Man(a1-6)]Man(b1-4)GlcNAc(b1-4)GlcNAc
# In short: as §1
# [26] = target: Gal(a1-4)Gal(b1-4)GlcNAc(b1-3)Gal(b1-4)Glc
# In short: as §1
# Gal(a1-4)GlcNAc = target: Gal(a1-4)GlcNAc
# In short: as §1
# Gal(a1-6)Glc = target: Gal(a1-6)Glc
# In short: as §1
# Gal(b1-2)Gal = target: Gal(b1-2)Gal
# In short: as §1
# Gal(b1-3)Gal = target: Gal(b1-3)Gal
# In short: as §1
# Gal(b1-3)Gal(b1-4)GlcNAc = target: Gal(b1-3)Gal(b1-4)GlcNAc
# In short: as §1
# [27] = target: Gal(b1-3)Gal(b1-4)GlcNAc(b1-2)Man(a1-3)[Gal(b1-3)Gal(b1-4)GlcNAc(b1-2)Man(a1-6)]Man(b1-4)GlcNAc(b1-4)GlcNAc
# In short: as §1
# Gal(b1-3)GalNAc = target: Gal(b1-3)GalNAc
# In short: as §1
# [28] = target: Gal(b1-3)GalNAc(a1-3)[Fuc(a1-2)]Gal(b1-4)Glc
# In short: as §1
binder,measurement,setting,value
B1,glycan array binding signal (z-score),[1],0.011
same,glycan array binding signal (z-score),[2],-0.015
same,glycan array binding signal (z-score),[3],-0.021
same,glycan array binding signal (z-score),[4],-0.073
same,glycan array binding signal (z-score),[5],-0.066
same,glycan array binding signal (z-score),Fuc(a1-3)GlcNAc,-0.067
same,glycan array binding signal (z-score),[6],-0.096
same,glycan array binding signal (z-score),[7],-0.036
same,glycan array binding signal (z-score),[8],0.045
same,glycan array binding signal (z-score),[9],-0.056
same,glycan array binding signal (z-score),[10],-0.049
same,glycan array binding signal (z-score),[11],-0.026
same,glycan array binding signal (z-score),[12],-0.082
same,glycan array binding signal (z-score),[13],-0.047
same,glycan array binding signal (z-score),[14],-0.024
same,glycan array binding signal (z-score),[15],-0.039
same,glycan array binding signal (z-score),[16],-0.063
same,glycan array binding signal (z-score),[17],-0.042
same,glycan array binding signal (z-score),Fuc(a1-4)GlcNAc,-0.066
same,glycan array binding signal (z-score),Fuc(b1-3)GlcNAc,-0.041
same,glycan array binding signal (z-score),Gal(a1-2)Gal,-0.055
same,glycan array binding signal (z-score),Gal(a1-3)Gal,-0.009
same,glycan array binding signal (z-score),Gal(a1-3)Gal(b1-3)GlcNAc,-0.064
same,glycan array binding signal (z-score),[18],-0.025
same,glycan array binding signal (z-score),[19],-0.091
same,glycan array binding signal (z-score),Gal(a1-3)Gal(b1-4)Glc,-0.045
same,glycan array binding signal (z-score),Gal(a1-3)Gal(b1-4)GlcNAc,-0.08
same,glycan array binding signal (z-score),[20],-0.053
same,glycan array binding signal (z-score),[21],-0.082
same,glycan array binding signal (z-score),[22],-0.061
same,glycan array binding signal (z-score),Gal(a1-3)GalNAc,-0.061
same,glycan array binding signal (z-score),[23],-0.044
same,glycan array binding signal (z-score),[24],-0.022
same,glycan array binding signal (z-score),Gal(a1-4)Gal(b1-4)Glc,-0.059
same,glycan array binding signal (z-score),Gal(a1-4)Gal(b1-4)GlcNAc,-0.071
same,glycan array binding signal (z-score),[25],-0.085
same,glycan array binding signal (z-score),[26],-0.045
same,glycan array binding signal (z-score),Gal(a1-4)GlcNAc,-0.058
same,glycan array binding signal (z-score),Gal(a1-6)Glc,-0.075
same,glycan array binding signal (z-score),Gal(b1-2)Gal,-0.067
same,glycan array binding signal (z-score),Gal(b1-3)Gal,-0.057
same,glycan array binding signal (z-score),Gal(b1-3)Gal(b1-4)GlcNAc,-0.075
same,glycan array binding signal (z-score),[27],-0.045
same,glycan array binding signal (z-score),Gal(b1-3)GalNAc,-0.066
same,glycan array binding signal (z-score),[28],-0.084
